Source: publication PMC7819943, “Rice protein-binding microarrays: a tool to detect cis-acting elements near promoter regions in rice”
The list shows a part of the results.

The sequences below were run against T1, OsWOX13 (Oryza sativa, UniProt Q5QMM3 1-267) (assay: protein-binding microarray (RPBM); PBS, 2% BSA, 51.3 ng/ul salmon testes DNA, 50 uM zinc acetate, 200 nM TF, 25 C, 1 h; high values mean tight binding). Conditions: protein: recombinant; tags: N-terminal polyhistidine and DsRed monomer fusion (pET32a); label: CyDye5-dUTP incorporated in the synthesized complementary strand; 3' TTTTT single-stranded linker to array surface; dsDNA, one strand shown.
T1 sequence: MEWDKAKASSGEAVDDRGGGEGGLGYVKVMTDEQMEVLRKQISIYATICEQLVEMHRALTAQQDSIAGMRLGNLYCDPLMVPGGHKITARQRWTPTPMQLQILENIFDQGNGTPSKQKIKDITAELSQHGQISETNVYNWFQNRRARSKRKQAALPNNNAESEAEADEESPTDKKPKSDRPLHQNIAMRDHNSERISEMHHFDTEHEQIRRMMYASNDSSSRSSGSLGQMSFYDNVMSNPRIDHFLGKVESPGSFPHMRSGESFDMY
Outline: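 The binding signal is fluorescence intensity per array feature (arbitrary units). Readings came from an Axon 4000B scanner after a washed, 2% BSA-blocked, double-stranded custom Agilent array had been incubated for 1 h at 25 °C with 200 nM protein and 50 µM zinc acetate. The protein was a Ni–NTA-purified transcription factor fused N-terminally to polyhistidine and DsRed, expressed in E. coli BL21-CodonPlus.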

In order of falling binding signal:
1. AAAATTGATATGTAATTATGACACACTTACGTCGGATATGCGGAGTCACCTAGTGCAG  64500 fluorescence intensity (a.u.)
2. CCTAATAATTAATTAATGATGCACGAGGGATTATCCAACTCGGAGTCACCTAGTGCAG  53200 fluorescence intensity (a.u.)
3. GAACGTGATTAAATTTCTCACCCTCACTTCGGTCAGTTGGCGGAGTCACCTAGTGCAG  39900 fluorescence intensity (a.u.)
4. GATAATTAAGAAACCAAATTAGTACACCTAGCTCTGTCTGCGGAGTCACCTAGTGCAG  36100 fluorescence intensity (a.u.)
5. TCCATCTCCGGCGAGTTGATTGGCTGACTGACTGGCGGCGCGGAGTCACCTAGTGCAG  34100 fluorescence intensity (a.u.)
6. GATTAATTGTTGCATTTAAAATGTGGGTCATGACCGCTATCGGAGTCACCTAGTGCAG  26600 fluorescence intensity (a.u.)
7. ATAATAATTCTGAATTAACAAATGGCGCAAATTGACATGGCGGAGTCACCTAGTGCAG  23900 fluorescence intensity (a.u.)
8. AACCATAATTTAATATGTGTGTGAGACTTCTCTTTCCCGGCGGAGTCACCTAGTGCAG  20700 fluorescence intensity (a.u.)
9. TAAGATTGAGGAGATTTGTTACTCCCGTAGTCAGGGGCCGCGGAGTCACCTAGTGCAG  19300 fluorescence intensity (a.u.)
10. TTGATCAATTATATATTATTTTAGAAAACAAAAGCGTGCACGGAGTCACCTAGTGCAG  19000 fluorescence intensity (a.u.)
11. GTATGAATAAATTATTAGATTAGCTATAGATTAATTGAAGCGGAGTCACCTAGTGCAG  16400 fluorescence intensity (a.u.)
12. TCTTGATGAATAATTCTATTAGGCTCTAACCAGCGGTGCACGGAGTCACCTAGTGCAG  15800 fluorescence intensity (a.u.)
13. GACAAGCGTGATTAGTTCCAAATTCCAAGGCATTTTCTGACGGAGTCACCTAGTGCAG  13400 fluorescence intensity (a.u.)
14. AAATATATTGTACAATTAATTAGTTAGCAGGTTTTGCACCCGGAGTCACCTAGTGCAG  12900 fluorescence intensity (a.u.)
15. ACATAGATTATAGATAATCGGATTCGTTGACATACCTCAGCGGAGTCACCTAGTGCAG  12100 fluorescence intensity (a.u.)
16. GCCTTATTTGCACTGATTTTGATAGTTGAGGAACCCGTTGCGGAGTCACCTAGTGCAG  11200 fluorescence intensity (a.u.)
17. CTTAAACAATTAATCATCATCTCATACAATTATTCCAGTCCGGAGTCACCTAGTGCAG  10200 fluorescence intensity (a.u.)
18. ACACCATGATTTGACAATGTGGTGATACAGTAAACATTTACGGAGTCACCTAGTGCAG  9110 fluorescence intensity (a.u.)
19. ACATATTCCATGAATGATTGATCTCTTTTGCATTTGTTCGCGGAGTCACCTAGTGCAG  9020 fluorescence intensity (a.u.)
20. GGTAATTTTCCATGAAATGGTAGTTTGAGCATGTGGGGAACGGAGTCACCTAGTGCAG  7700 fluorescence intensity (a.u.)
21. GCTTACCAAATTTCACTGTTAACAGATACCCATGGATGGTCGGAGTCACCTAGTGCAG  7620 fluorescence intensity (a.u.)
22. ATAACAAATTAGAAACTGGAGGGAGGAGTAAAATTGGAGGCGGAGTCACCTAGTGCAG  6910 fluorescence intensity (a.u.)
23. TCTTATAATCACATCAAGTTTAAATTGCAACAAATAACAACGGAGTCACCTAGTGCAG  6830 fluorescence intensity (a.u.)
24. CTCTCCTTAATTTCTTGAATTGCTATCCGATCCTGAGCAACGGAGTCACCTAGTGCAG  6820 fluorescence intensity (a.u.)
25. CTGATGACGAAATTGGAGGGAGTAGATTATTAGCAATAGTCGGAGTCACCTAGTGCAG  6800 fluorescence intensity (a.u.)
26. AACCATAAACAAATTAGCACAGGAGACTAATGCAACCCAGCGGAGTCACCTAGTGCAG  6580 fluorescence intensity (a.u.)
27. GTTTAGGACCTTTGATTTGTTGGTGACAGAACCCAAGGCGCGGAGTCACCTAGTGCAG  6360 fluorescence intensity (a.u.)
28. TTAAATTGTATACGATAGATTTACTGAGTTGAGCACTCTCCGGAGTCACCTAGTGCAG  6330 fluorescence intensity (a.u.)
29. ATTAACTGTTTTGTTTGGTTGGAAGAGATGGGAATTTTGGCGGAGTCACCTAGTGCAG  5740 fluorescence intensity (a.u.)
30. AAAATATAATAGATAACTAGATATATCGTTTTGCTTATGTCGGAGTCACCTAGTGCAG  5590 fluorescence intensity (a.u.)
31. ACTATAATCAAATCATCCACCATATCGTCGACCGACCAACCGGAGTCACCTAGTGCAG  5400 fluorescence intensity (a.u.)
32. CAAAATCAAATTCAAATTTTGGGCAAACGATGAGGTCCTTCGGAGTCACCTAGTGCAG  4350 fluorescence intensity (a.u.)
33. GAAATCTCCATGATTTGTACTGTTCGTTCGTCATCGCGATCGGAGTCACCTAGTGCAG  4290 fluorescence intensity (a.u.)
34. TCTAATATAGAAAATTTACGATGATATGGATCCAATCTATCGGAGTCACCTAGTGCAG  3820 fluorescence intensity (a.u.)
35. TTTTATAATTTCTCTTCTTATTATGAAGACTTGGGCCGTTCGGAGTCACCTAGTGCAG  3690 fluorescence intensity (a.u.)
36. GCGTCACCATGATTACCTGGCTTTCTGGGCCAGACACGCCCGGAGTCACCTAGTGCAG  3350 fluorescence intensity (a.u.)
37. CGGAATTGAAAACCACGGATACAAAAGCATAATCAAATATCGGAGTCACCTAGTGCAG  3300 fluorescence intensity (a.u.)
38. GTTATGAGAAACATCATGTTGATTAGGCAGCTTGACCTGACGGAGTCACCTAGTGCAG  3280 fluorescence intensity (a.u.)
39. CGAGGAATTCAGTGATGGACTGATAGAAGTTCGGTCTGACCGGAGTCACCTAGTGCAG  3280 fluorescence intensity (a.u.)
40. GAGAATGGTGATGAATGGGCCTATCAGAGGAAGATAATTGCGGAGTCACCTAGTGCAG  3250 fluorescence intensity (a.u.)
41. ATTGTTAATTTTAGATAGTATAAAGTTTCACCACCATTAACGGAGTCACCTAGTGCAG  3240 fluorescence intensity (a.u.)
42. TTCATCCATCTATTATAAAACTGAAACTCTGATGAGTTTTCGGAGTCACCTAGTGCAG  3180 fluorescence intensity (a.u.)
